Experimental data taken from ChEMBL document CHEMBL4888484, “Replenishing the malaria drug discovery pipeline: Screening and hit evaluation of the MMV Hit Generation Library 1 (HGL1) against asexual blood stage Plasmodium falciparum ,using a nano luciferase reporter read-out” (2022).
The whole screen tested about 150,000 compounds, of which about 540 (0.36%) showed an effect of 50% or more. The list shows a part of the results.

System: Plasmodium falciparum
Test: Primary screen in NF54 nanoGlo assay, in single point, at 2uM, 72h; a lower Z score goes with more inhibition
Type: functional, Erythrocyte
Conditions: timepoint 72 hour

Structure (SMILES)	% Inhibition	Z score
CN(C)CCCN(C(=O)c1ccc(S(=O)(=O)N2CCCCCC2)cc1)c1nc2cc3c(cc2s1)OCCO3	17%	-2.1
CC(C)N(C)Cc1nc(-c2cc3c([nH]c2=O)[C@@H](C)CCC3)no1	-14%	2.58
COC(=O)C[C@H]1CCCN1C(=O)NCCc1c[nH]c2ccc(F)cc12	1%	-0.16
CC(C)c1ncc(C(=O)Nc2nn(C)cc2C#N)s1	-9%	0.82
CCCN(Cc1cc(=O)[nH]c2c(C)cc(C)cc12)C(=O)Nc1ccc2c(c1)OCO2	29%	-3.94
Cc1ncccc1C(=O)N[C@@](C)(C(N)=O)c1cccc(Cl)c1	4%	-0.5
Cc1oc2c(c1C(=O)NCCn1cncn1)C(=O)CCC2	-7%	1.4
CN(CCn1ccnc1)[C@H]1CCN(Cc2ccccc2)C1	-8%	1.44
CC1CN(C(=O)CCn2cnc3ccccc3c2=O)CC(C)N1 (centres undefined)	-12%	1.82
COc1ccc(OC)c(Nc2cc(C)nc3nnnn23)c1	37%	-4.93
CC1=C(C)CN(C(=O)Nc2cnc(C)nc2)CC1	-17%	1.53
Cc1ccsc1C(=O)Nc1ccc2c(c1)CCN2	-14%	1.45
COc1ccccc1-c1cc(C(=O)N2CCN(Cc3ccccc3)CC2)nc2cc(-c3ccccc3)nn12	1%	-0.12
C[C@@H]1CC(=O)N[C@H](C(=O)N(Cc2ccncc2)Cc2cccs2)C1	2%	-0.36
Cc1oc2ncnc(NC(=O)C3CC3c3ccco3)c2c1C (centres undefined)	-11%	1.5
Cc1nn(S(=O)(=O)N2CCCC2)c(C)c1Br	-8%	1.03
CCc1cccc2c(C3=CCN(c4ccc5nnc(C(F)(F)F)n5n4)CC3)c[nH]c12	11%	-2.04
O=C(C1CCC1)N1C[C@@H]2COc3ccccc3C[C@]2(CO)C1	-5%	0.74
OC(CC#CCN1CCN(CC#CCC(O)(c2ccccc2)c2ccccc2)CC1)(c1ccccc1)c1ccccc1	-4%	0.56
Cc1cccc(/N=C(\NC(=O)c2ccccc2)N2CCN(c3cc(C)ccc3C)CC2)c1	0%	-0.05
COc1cc(OC)c2[nH]c(=O)c(CCNS(=O)(=O)c3c(C)n[nH]c3C)cc2c1	5%	-0.63

Structure (SMILES)	% Inhibition	Z score
Cc1cc2c(cc1S(=O)(=O)N1CCC[C@H]1C(=O)Nc1ccc3c(c1)OCCO3)OCC(=O)N2	3%	-0.57
CC(C)Cc1nnc(C[C@H]2CCN(C(=O)c3cnccn3)C2)o1	-2%	0.36
CCNC(=O)N1CCCC[C@@]1(C)c1noc(-c2ccc(F)cc2)n1	38%	-0.98
Cc1nc(C(=O)NCc2cn[nH]c2C)c(C)o1	-16%	2.05
C=CCN1CC[C@H](n2cnc(C(C)C)cc2=O)C1=O	0%	0.06
CC(=O)NC(Cc1nc(C(C)n2ccnc2)no1)c1ccc(C)cc1 (centres undefined)	-8%	1.23
Cc1ccc(OCc2cccc(C(=O)N3CC(C)NC(C)C3)c2)cn1 (centres undefined)	14%	-2.06
Cc1cc(N(C)Cc2ccc3c(c2)OCO3)nc(N)n1	11%	-0.96
O=C(NCC1CCOCC1)Nc1ccccc1	-3%	0.49
Cc1ccc(CNS(=O)(=O)CC#N)c(OC2CCCCC2)c1	-18%	2.31
C[C@@H](CNC(=O)CCc1cccs1)N1CCCC1	-7%	0.93
Cc1noc(C)c1C(=O)N1Cc2c(-c3nc(C4CC4)no3)nn(C)c2C1	6%	-0.93
CN1CCN(Cc2ccc3c(c2)OCCO3)C[C@]12CCNC(=O)CC2	-17%	1.86
c1coc(-c2ncc(-c3cn(CCc4cnc5ccccn45)nn3)cn2)c1	-19%	3.3
O=C(c1cccc(C(=O)N2CCCCC2)n1)N1CCCCC1	-6%	0.83
O=C(NCc1ccco1)[C@@H]1COC2(CCN(C(=O)c3cccc(Cl)c3)CC2)N1C(=O)c1ccc(F)cc1	-2%	0.32
CCCn1cc(CNC(=O)N2CCN(Cc3cc(F)cc(F)c3)CC2)cn1	11%	-2.15
CCC[C@H]1COCCN1C(=O)c1c[nH]c(=O)[nH]c1=O	-5%	0.87
O=C(NCCN1CCC(O)CC1)C(=O)Nc1ccc(C(F)(F)F)cc1	-3%	0.42
CCc1nc(NCc2ccccc2)c2onc(-c3ccc(C)cc3)c2n1	-14%	1.86
O=C(Cn1ncnn1)N1CCCC[C@H]1c1cccc(C(F)(F)F)c1	-15%	2.13
